Measured values taken from the supplement of paper PMC3334620.
The full ranking holds about 33,000 sequences; the median of “E-score (-0.5 to 0.5)” is about -0.017, and the highest 2% start at about 0.3. Some of the results follow.

Molecular target: T1, Sut1 (UniProt P53032)
T1 sequence: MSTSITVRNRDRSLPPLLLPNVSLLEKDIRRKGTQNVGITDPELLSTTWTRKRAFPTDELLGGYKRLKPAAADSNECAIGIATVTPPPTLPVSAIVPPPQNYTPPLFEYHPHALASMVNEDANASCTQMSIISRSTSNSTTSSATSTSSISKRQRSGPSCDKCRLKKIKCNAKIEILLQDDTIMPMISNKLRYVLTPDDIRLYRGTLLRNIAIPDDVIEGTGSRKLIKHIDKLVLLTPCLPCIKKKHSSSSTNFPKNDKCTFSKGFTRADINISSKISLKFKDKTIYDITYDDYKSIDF
Assay: PBM E-score (8-mer binding enrichment) (E-score (-0.5 to 0.5)); higher = stronger / more preferred TF binding; most listed sequences are background and not binding sites
Details: protein concentration: 200 nM; construct: GST-full length
Outline: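 Yeast transcription factors carrying a GST tag, as full-length proteins or DNA-binding domains, were produced by PURExpress in vitro transcription/translation. About 100-200 nM protein was applied to universal all-10-mer Agilent arrays, double-stranded by primer extension on fresh or once-stripped slides. Bound protein was detected with fluorescent anti-GST, and scans were normalised with masliner. The Universal PBM Analysis Suite gave each ungapped eight-base word, pooled with its reverse complement, an E-score, a modified Wilcoxon-Mann-Whitney statistic.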

| Sequence | PBM E-score |
| --- | --- |
| AGGTGAAT | -0.0631 |
| CGATAGCC | 0.132 |
| CCGAAAGG | 0.225 |
| CACGACGG | 0.0478 |
| ATCGTTGC | -0.0172 |
| ATTGAACG | 0.155 |
| CTGGTAAA | 0.141 |
| GCTATCCC | -0.216 |
| ACGCTTTG | -0.0106 |
| AGCGTAAG | -0.0488 |
| AAGCAAAT | 0.0784 |
| ATCACGAG | -0.184 |
| AGGACCAG | -0.126 |
| CAGCCTAG | -0.092 |
| CGCGGACG | 0.0627 |
| AGCCGCCT | -0.187 |
| GGCACAGA | -0.096 |
| ACTCTGAT | -0.0861 |
| ACTGGCGC | -0.226 |
| CCCTTCTA | -0.289 |
| GGTTGCCA | -0.0145 |
| GCAGCGAC | -0.281 |
| CGCCAACG | -0.107 |
| ACAAGATA | 0.0181 |
| AGCCCCCG | -0.26 |

| Sequence | PBM E-score |
| --- | --- |
| GGACGGAA | 0.0838 |
| ACGTCCCA | -0.0797 |
| AGCTAGGC | -0.232 |
| CATGTCGC | -0.143 |
| GGTACGGA | 0.155 |
| AGGGTAGA | -0.238 |
| ACTGCGAA | -0.0614 |
| CTAAGCGA | -0.0956 |
| ATGACTAC | -0.0159 |
| GCTCCTAC | -0.0257 |
| GCGCAGCA | -0.232 |
| CCAGTAAG | -0.092 |
| ATCAAAAG | 0.118 |
| CTAATATA | 0.225 |
| AAGACGCC | -0.162 |
| AGGCCAGG | -0.223 |
| CCTCAAAA | -0.029 |
| GCTTTACC | 0.225 |
| CTGTCAAG | -0.0992 |
| GGAACCCC | -0.0814 |
| CTGACAAG | 0.127 |
| GCCGTGCA | -0.19 |
| TAACTGGA | -0.0801 |
| GGCCTACC | -0.185 |
| CCTAGGTC | -0.183 |

| Sequence | PBM E-score |
| --- | --- |
| ATGAGTAC | 0.144 |
| CCTCGTAC | -0.0317 |
| AACTTTTA | 0.0977 |
| ATTGCCCC | -0.17 |
| CCAGGCCC | -0.281 |
| CCTACTAC | -0.0856 |
| ACATCACA | 0.0099 |
| AACTACTA | 0.257 |
| GCCGATTA | 0.106 |
| GCGTCAGA | -0.155 |
| AGAAACAG | -0.0583 |
| CAGAGTGG | -0.258 |
| ACGTAGTG | -0.138 |
| GATTACCA | -0.164 |
| AAAGTAGT | -0.0125 |
| CATTAGGG | -0.139 |
| AGACGCCT | -0.193 |
| TCAATCGA | 0.0594 |
| ATCCCAAA | 0.085 |
| GTATCGCA | -0.0241 |
| GAATCACC | -0.05 |
| CGGGACCG | 0.188 |
| ACGGTGCC | -0.0952 |
| ACAAAGTC | 0.171 |
| CAGATATC | 0.0173 |

| Sequence | PBM E-score |
| --- | --- |
| AGTGTCAA | -0.0888 |
| ACTAGACT | -0.313 |
| CCCGCACG | -0.102 |
| ACCTAGGT | -0.151 |
| AGTGAAAA | 0.136 |
| CCGCTGAC | -0.0188 |
| CAGGTTTA | 0.0419 |
| AGCGATGA | -0.0374 |
| TAAGACGA | -0.061 |
| ATGAGAAA | 0.18 |
| CGCAGTTA | -0.00781 |
| ACTGGTCT | -0.0362 |
| AATAAGCC | -0.179 |
| ATGAGCAT | 0.0799 |
| CCGCCTGA | -0.113 |
| AACCGACC | 0.025 |
| GAATAACC | 0.116 |
| CAACGCAG | -0.239 |
| ATGCTGAG | -0.294 |
| GCGCACCC | -0.173 |
| GCCTGAAA | 0.097 |
| ACACACGG | -0.0326 |
| GGGCGCCC | -0.191 |
| CGTCGGAG | 0.422 |
| CTAATGCA | 0.029 |

| Sequence | PBM E-score |
| --- | --- |
| ATAAACCG | -0.0374 |
| CACGTCTC | -0.0634 |
| GTAGCCGA | -0.286 |
| CACCTGCA | -0.187 |
| GAACGTGA | 0.0996 |
| GCCTCGTA | -0.0323 |
| ACAGACGC | -0.264 |
| ACCCTTTC | -0.123 |
| GACGCTCC | -0.00509 |
| CATGCTAA | -0.137 |
| ATTGTGGG | -0.0003 |
| GCAGTCCA | -0.049 |
| AGCGCGAT | -0.0871 |
| GACCGCAC | -0.192 |
| CTTATCGC | -0.0111 |
| TGGCACCA | -0.182 |
| ACGGTTCC | -0.136 |
| ATGCGCCA | -0.164 |
| AGACGTTC | -0.0869 |
| CCAAACCG | 0.0952 |
| GTCAAGAC | -0.283 |
| ACCTAAAG | -0.081 |
| GCTCCGAC | 0.267 |
| ATTCTGCA | -0.00044 |
| ATCTGGGC | -0.143 |

| Sequence | PBM E-score |
| --- | --- |
| ATCGACTA | -0.0299 |
| ACCCAAGG | -0.0883 |
| TAACGGGA | 0.00022 |
| CAAGATGA | -0.187 |
| TATCAGCA | -0.0103 |
| ATCGAAAT | -0.0178 |
| CTGTAATC | -0.115 |
| AGAGATCA | -0.102 |
| ACGGAACT | 0.126 |
| CAAGTTCG | -0.202 |
| ACTCCGTA | 0.478 |
| AGACCAGC | -0.226 |
| ATAATGGG | -0.0182 |
| ATATGTAA | 0.195 |
| CAAGATAA | 0.123 |
| CGGACGAC | -0.0491 |
| AACAGGAC | 0.0542 |
| AACCGCCG | 0.0707 |
| AGACAATG | 0.0774 |
| CGCCGTTC | -0.157 |
| ACGATCGG | 0.176 |
| CCTGAGAC | -0.352 |
| CATATATA | 0.299 |
| GAGCTACA | -0.127 |
| AGGGACCC | -0.167 |

| Sequence | PBM E-score |
| --- | --- |
| AGTAAAGC | 0.00918 |
| TCCTTTCA | 0.0506 |
| AAGAAAGT | 0.174 |
| AGGTGTCC | -0.263 |
| ACTCTATA | 0.128 |
| CATCGTAA | 0.173 |
| ACTCACGC | -0.219 |
| GGTCATCA | -0.105 |
| AAATGCGC | 0.177 |
| GTGCAATA | 0.00116 |
| AACCGTTA | -0.146 |
| GATAATGA | 0.174 |
| GACCCATA | 0.101 |
| CCACTACA | 0.0189 |
| CATTGCTA | 0.119 |
| CCTCTTAA | 0.183 |
| AGGGAGAA | -0.0707 |
| CAACCAAA | 0.132 |
| ACAAGTAG | -0.117 |
| AACTCTAC | -0.162 |
| CGTAAGTA | 0.177 |
| AGATAAGC | 0.0592 |
| CTCACATC | 0.00044 |
| CCCAAAGG | -0.138 |
| CCAATTCG | 0.0655 |

| Sequence | PBM E-score |
| --- | --- |
| ATTTCGCA | 0.2 |
| AAGGTCTG | 0.0415 |
| AGTAAGCC | -0.0588 |
| GCAAGAAA | 0.119 |
| ATCGTATC | 0.0239 |
| AACTGCCG | 0.00887 |
| CGCAAGAA | 0.0842 |
| CCGAGACG | -0.0262 |
| AATACCGG | 0.244 |
| GGACGGAC | 0.285 |
| GATGGCAA | 0.0398 |
| AGTCCTTG | -0.127 |
| AGTGCCCA | -0.113 |
| CGCCGCTA | 0.0611 |
| TAAAGCTA | 0.101 |
| AACGGTCA | 0.00729 |
| GCAGGGCC | -0.373 |
| GCACAGTA | -0.0754 |
| CGACTTTC | 0.0479 |
| CATGGGAC | -0.24 |
| CTCACTAA | 0.0766 |
| GCCAGATA | -0.113 |
| CTAATATC | 0.102 |
| CCGTCAGC | -0.0258 |
| ACCATCAA | 0.0283 |

| Sequence | PBM E-score |
| --- | --- |
| CCTATAGC | -0.202 |
| ACGTCATA | 0.182 |
| CCTTCGGA | 0.32 |
| CGCTCAGA | 0.0462 |
| AACTGCCA | -0.177 |
| AGCGCATA | 0.0255 |
| CTTAGGTC | 0.00349 |
| ATCCCACG | -0.261 |
| AGCATACG | -0.231 |
| ATTGTGAG | 0.131 |
| AATAGACG | 0.0203 |
| CCTCGCAG | -0.191 |
| ACGCCAAT | -0.00725 |
| CATGCGAA | -0.108 |
| CTGTAAAG | 0.0573 |
| CCCTCATC | -0.309 |
| CAGTCCGA | 0.411 |
| CCTGCCCA | -0.263 |
| CCGTGGAG | -0.0839 |
